# In PubChem BioAssay AID1030 (National Center for Advancing Translational Sciences (NCATS), 2008):
# The whole screen tested about 220,000 compounds, of which about 16,000 (7.3%) were called active. Inconclusive results, whose numbers are uncertain, are shown with a selection of clear calls. The call rests on the fitted dose curve; in most records, active means well fitted inhibition curve with a large enough effect (not every such curve was filed as active); inconclusive means small, poorly fitted or top-dose-only effect, or another doubt; inactive means no such curve, though single readings can be large or run the other way. No potency is given beside an inconclusive call; the fits are too rough.
# Molecular target: Aldehyde dehydrogenase 1A1 (Homo sapiens) (UniProt P00352)
# Assay: qHTS Assay for Inhibitors of Aldehyde Dehydrogenase 1 (ALDH1A1);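 on activity, negative = inhibition: plate controls were no enzyme wells and a reference inhibitor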
# Settings: Purified ALDH1A1, NADH fluorescence, propionaldehyde substrate; series mostly up to 75.3 µM; activity, negative = inhibition: at the top concentration
# Potency means the concentration at half of the fitted maximal effect; tags describe the fitted curve by direction and shape.
# Sequence of UniProt P00352 (P00352 whole entry, looked up): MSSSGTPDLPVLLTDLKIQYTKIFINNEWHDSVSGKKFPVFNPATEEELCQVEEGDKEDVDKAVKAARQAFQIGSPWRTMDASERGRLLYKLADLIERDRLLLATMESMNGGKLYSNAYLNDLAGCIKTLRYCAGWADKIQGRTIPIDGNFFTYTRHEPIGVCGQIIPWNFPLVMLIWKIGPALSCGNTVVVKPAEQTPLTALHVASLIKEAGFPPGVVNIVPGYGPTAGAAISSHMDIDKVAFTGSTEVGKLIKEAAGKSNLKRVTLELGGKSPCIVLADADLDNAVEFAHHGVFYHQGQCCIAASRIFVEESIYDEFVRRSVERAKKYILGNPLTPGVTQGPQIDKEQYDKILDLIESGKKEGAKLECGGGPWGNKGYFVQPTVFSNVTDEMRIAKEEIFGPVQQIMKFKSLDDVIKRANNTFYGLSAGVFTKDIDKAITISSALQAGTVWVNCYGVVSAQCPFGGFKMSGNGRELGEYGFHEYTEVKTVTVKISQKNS
Structure (SMILES),"activity, negative = inhibition",Potency
C/C(=N/Nc1ccc2ccccc2n1)c1ccccc1O,inactive: -2.54% [at 13.5 µM],
CC(=O)c1ccc(Oc2ncnc3sccc23)c(CN2CCOCC2)c1,,"inconclusive [inhibitor, single point]"
C=CC(C)n1c(Br)nc2c1c(=O)[nH]c(=O)n2C (centres undefined),inactive: 9.28%,
CC1CCc2nn(CC(=O)NCCC3=CCCCC3)cc2C1 (centres undefined),,"inconclusive [inhibitor, single point]"
O=C(CCCOc1ccccc1)Nc1nnc(C2CCCO2)s1 (centres undefined),,"inconclusive [inhibitor, single point]"
COc1cc(S(=O)(=O)Nc2ccccn2)ccc1F,,"inconclusive [inhibitor, single point]"
Cn1c(=O)c2[nH]c(CCNC(=O)c3ccccc3)nc2n(C)c1=O,,"inconclusive [inhibitor, single point]"
Nc1nc(-c2ccc(Cl)c(Cl)c2)c(-c2ccncc2)s1,,"inconclusive [inhibitor, partial curve]"
CC1(C)Cc2c(sc3nc(-c4ccccc4Cl)n(N)c(=O)c23)CO1,,"inconclusive [inhibitor, partial curve, poor fit]"
CC12C=C(/C=C/C=C/c3ccccc3)C(C)(C1)C(/C=C/c1ccccc1)CC2=O (centres undefined),,"inconclusive [inhibitor, partial curve]"
CC(C)NCCCOc1ccc(Cl)cc1Br,,"inconclusive [inhibitor, single point]"
c1ccc(-n2ncc3c(N4CCC5(CC4)OCCO5)ncnc32)cc1,,"inconclusive [inhibitor, single point]"
CCOc1ccc(C2C=C(c3ccccc3)Nc3nnnn32)cc1 (centres undefined),,"inconclusive [inhibitor, single point]"
O=C(Nc1ccc2oc(-c3ccc4ccccc4c3)nc2c1)c1cccs1,,"inconclusive [inhibitor, partial curve]"
O=C(N/N=C/c1ccc(-c2ccc(S(=O)(=O)Nc3ncccn3)cc2)o1)c1cc2ccccc2cc1O,,"inconclusive [inhibitor, single point]"
Cc1ccc(S(=O)(=O)NC2CCCCC2)cc1,,"inconclusive [inhibitor, single point]"
Cc1ccc(CC(=O)Nc2ncc([N+](=O)[O-])s2)cc1,,"inconclusive [inhibitor, single point]"
CCO/C(C)=N/n1c2nc3ccccc3nc2c2c(=O)n(CC(C)C)c(C)nc21,,active: 25.1 µM
COc1ccc(C2CC(c3cccs3)=Nc3ccccc3S2)cc1OC (centres undefined),,"inconclusive [inhibitor, single point]"
CCOC(=O)c1c(C)[nH]c(C(=O)CSc2nnc(-c3cccs3)n2Cc2ccccc2)c1C,inactive: -0.916%,
O=c1[nH]c2ccc(NC(=S)Nc3ccccc3Cl)cc2[nH]1,,active: 6.31 µM
Cc1noc(C)c1CSCC(=O)N1CCN(c2ccc(F)cc2)CC1,inactive: -5.01%,

Structure (SMILES),"activity, negative = inhibition",Potency
O=C(CC1C(=O)NCCN1Cc1cccc(Oc2ccccc2)c1)NCCc1cnccn1 (centres undefined),,"inconclusive [inhibitor, single point]"
Cc1ccc2c(c1)c1ncn(CCC3=CCCCC3)c(=O)c1n2C,,"inconclusive [inhibitor, partial curve]"
Fc1ccccc1N1CCN(c2nc3ccccc3n3nnnc23)CC1,,"inconclusive [inhibitor, partial curve]"
O=C(c1ccc2c(c1)OCO2)[C@@H]1[C@@H]2C(=O)N(C3CCCCC3)C(=O)[C@@H]2C2c3ccccc3C=CN21 (some centres undefined),,active: 3.55 µM
O=C1c2ccccc2C(=O)N1CCC(c1ccc(F)cc1)c1ccco1 (centres undefined),,active: 10 µM
Cc1cc(NC(=O)C2CC(c3c(F)cccc3Cl)=NO2)n(-c2ccccc2)n1 (centres undefined),,"inconclusive [inhibitor, single point]"
COc1ccc(N(C(=O)c2ccco2)C(C(=O)NC2CCCC2)c2ccc(N(C)C)cc2)cc1 (centres undefined),,active: 2.51 µM
CC(C)CCN1C(=O)CC(NNC(=O)c2ccc(S(=O)(=O)N3CCCC3)cc2)C1=O (centres undefined),,active: 12.6 µM
O=C(Cn1cc(SCc2ccccc2Cl)c2ccccc21)N1CCOCC1,,"inconclusive [inhibitor, single point]"
CN(Cc1ccccc1)C(=O)COC(=O)C1=NNC(=O)CC1,,"inconclusive [inhibitor, single point]"
Cc1cc(/C=C2/C(=N)N3C(=NC2=O)SN=C3S(C)(=O)=O)c(C)n1-c1ccccc1,,"inconclusive [inhibitor, single point]"
CCc1nc(C)ccc1OC(=O)C12CC3CC(CC(C3)C1)C2,,active: 17.8 µM
Cc1ccc(N2C(=O)C(Cl)=C(NCc3ccccc3)C2=O)c(C)c1,inactive: -6.29%,
CCOC(=O)Cc1csc(NC(=O)CSc2nc(C)cc(=O)[nH]2)n1,,"inconclusive [inhibitor, single point]"
Cc1cc(C)c2cccc(NC(=S)NC(=O)c3ccccc3)c2n1,,"inconclusive [inhibitor, single point]"
COc1ccc(/C=N/NS(=O)(=O)c2ccccc2)cc1OS(=O)(=O)c1ccccc1,,"inconclusive [inhibitor, partial curve]"
CCCCC[C@H](O)CC[C@H]1[C@H](O)CC(=O)[C@@H]1CCCCCCC(=O)O,,inactive
COc1ccc(C(=O)NCC(=O)OCC(=O)N2CC(C)CC(C)C2)cc1 (centres undefined),inactive: -13.1%,
OCC1(CCCc2ccccc2)CCN(Cc2cc(F)ccc2F)CC1,,"inconclusive [inhibitor, single point]"
Cc1ccc2nc3c(cc(C#N)c(=O)n3CCN3CCOCC3)c(=O)n2c1,,"inconclusive [inhibitor, partial curve]"
COc1ccc(N2C(=O)/C(=C3/C=CC=CN3C)SC2=S)cc1,,"inconclusive [inhibitor, single point]"
O=C(CCN1C(=O)C2CC=CCC2C1=O)N1CCN(c2ccccn2)CC1 (centres undefined),,"inconclusive [inhibitor, partial curve]"
